Molecules are shown by their SMILES. The list shows a part of the results.

The subject of one test is HSkMC. The test is described as follows: cytotoxicity call (relative viability < 0.9). Particulars: 10 µM.
In another test the test system is HepG2. Description: cytotoxicity call (relative viability < 0.9). The following applies: 10 µM.
Another test concerns S. aureus RN4220. Description: growth inhibition call (relative growth <= 0.2). The following applies: 50 µM.

`C[C@H]1CN([C@@H](C)CO)C(=O)c2cc(C#CCN(C)C)cnc2O[C@H]1CN(C)Cc1ccc(C(=O)O)cc1`: the cytotoxicity call in the test with HSkMC and in the test on HepG2 was “inactive” each time. Besides, the growth inhibition call in the test on S. aureus RN4220 is “inactive”.
Take `COc1ccc(S(=O)(=O)N(C)C[C@@H]2Oc3ccc(NS(=O)(=O)c4ccc(F)cc4)cc3CC(=O)N([C@H](C)CO)C[C@@H]2C)cc1`: the cytotoxicity call in the test on HSkMC and in the test with HepG2 was “inactive” in each case. The growth inhibition call with S. aureus RN4220 is “inactive”.
With `C[C@@H]1CN([C@@H](C)CO)C(=O)Cc2cc(NC(=O)NC3CCCCC3)ccc2O[C@H]1CN(C)C(=O)Nc1ccc(C(F)(F)F)cc1`, the cytotoxicity call in the test with HSkMC and in the test with HepG2 was “inactive” throughout. Further, the growth inhibition call in the test on S. aureus RN4220 is “inactive”.
In the case of `C[C@@H]1CN([C@H](C)CO)C(=O)Cc2cc(NC(=O)Nc3ccc(C(F)(F)F)cc3)ccc2O[C@H]1CN(C)S(=O)(=O)c1ccc(Cl)cc1`, in the test with HSkMC, the cytotoxicity call was “active”. In addition, the cytotoxicity call with HepG2 is “inactive”. For the same compound, in the test on S. aureus RN4220, the growth inhibition call is “inactive”.
With `COc1ccc([C@@H](O)[C@@H](CCO)OC)cc1O`, the cytotoxicity call with HSkMC and in the test on HepG2 was “inactive” in each case. Moreover, the growth inhibition call in the test with S. aureus RN4220 was “inactive”.
`C[C@@]1(C(=O)O)NCCc2cc(O)c(O)cc21`: the cytotoxicity call with HSkMC and with HepG2 was “inactive” throughout. The growth inhibition call with S. aureus RN4220 was “inactive”.
With `CCC(=O)N[C@H]1C=C[C@@H](CC(=O)OC)O[C@H]1CO`, the cytotoxicity call in the test on HSkMC and in the test with HepG2 was “inactive” throughout. Moreover, the growth inhibition call with S. aureus RN4220 is “inactive”.
`C[C@@H]1CN([C@@H](C)CO)C(=O)c2cccc(NS(=O)(=O)c3ccc(Cl)cc3)c2O[C@@H]1CN(C)C(=O)Nc1ccc(C(F)(F)F)cc1`: the cytotoxicity call in the test with HSkMC and with HepG2 was “active” throughout. In the test on S. aureus RN4220, the growth inhibition call was “inactive”.
For `O=C(O)Cc1cc(I)c(Oc2ccc(O)c(I)c2)c(I)c1`, the cytotoxicity call in the test with HSkMC and with HepG2 was “inactive” each time. Also, in the test with S. aureus RN4220, the growth inhibition call is “inactive”.
Turning to `COc1cccc(-c2ccc3c(c2)O[C@H](CN(C)C(=O)C2CC2)[C@H](C)CN([C@@H](C)CO)S3(=O)=O)c1`, the cytotoxicity call in the test on HSkMC and in the test with HepG2 was “inactive” in each case. For the same compound, in the test on S. aureus RN4220, the growth inhibition call is “inactive”.
As for `CC(C)CCCC(=O)N[C@@H](CCNCS(=O)(=O)O)C(=O)N[C@H](C(=O)N[C@@H](CCNCS(=O)(=O)O)C(=O)N[C@H]1CCNC(=O)[C@H]([C@@H](C)O)NC(=O)[C@H](CCNCS(=O)(=O)O)NC(=O)[C@H](CCNCS(=O)(=O)O)NC(=O)[C@H](CC(C)C)NC(=O)[C@H](CC(C)C)NC(=O)[C@H](CCNCS(=O)(=O)O)NC1=O)[C@@H](C)O`, the cytotoxicity call in the test on HSkMC and in the test on HepG2 was “inactive” in each case. The growth inhibition call in the test on S. aureus RN4220 was “inactive”.
With `COc1ccc(S(=O)(=O)Nc2ccc3c(c2)C(=O)N([C@H](C)CO)C[C@@H](C)[C@H](CN(C)C(=O)c2ccccc2)OCCCC[C@@H](C)O3)cc1`, the cytotoxicity call in the test on HSkMC and with HepG2 was “inactive” in each case. Besides, in the test with S. aureus RN4220, the growth inhibition call was “inactive”.
Take `Cc1cn([C@H]2CC[C@@H](CO)O2)c(=O)[nH]c1=O`: the cytotoxicity call in the test on HSkMC and in the test with HepG2 was “inactive” in each case. In addition, the growth inhibition call with S. aureus RN4220 is “inactive”.
`Oc1cccc(c1)/C/1=C/2\CC/C(=C(\c3cccc(c3)O)c3ccc([nH]3)/C(=C\3/C=CC(=N3)/C(=C\3/C=CC1=N3)c1cccc(c1)O)c1cccc(c1)O)N2`: in the test on HSkMC, the cytotoxicity call was “active”. Moreover, in the test on HepG2, the cytotoxicity call was “inactive”. In addition, in the test on S. aureus RN4220, the growth inhibition call was “inactive”.
Turning to `CCOc1ccc(/C=C/C(=O)Sc2ccc(Cl)cc2)cc1`, the cytotoxicity call in the test on HSkMC and in the test with HepG2 was “inactive” each time. The growth inhibition call in the test with S. aureus RN4220 was “inactive”.
Take `Cc1cc(C(=O)Nc2cccc3c2O[C@H](CN(C)S(=O)(=O)c2ccc(Cl)cc2)[C@H](C)CN([C@H](C)CO)C3=O)n(C)n1`: the cytotoxicity call in the test on HSkMC and in the test with HepG2 was “inactive” each time. Moreover, the growth inhibition call in the test with S. aureus RN4220 is “inactive”.
For the compound `C[C@H](CO)N1C[C@H](C)[C@H](CN(C)C(=O)Nc2ccc3c(c2)OCO3)Oc2ncc(C#CCN(C)C)cc2C1=O`, the cytotoxicity call in the test with HSkMC and in the test with HepG2 was “inactive” each time. Also, in the test on S. aureus RN4220, the growth inhibition call was “inactive”.
Turning to `Cc1noc(C)c1NC(=O)Nc1ccc2c(c1)CC(=O)N([C@@H](C)CO)C[C@@H](C)[C@H](CN(C)S(C)(=O)=O)O2`, the cytotoxicity call in the test on HSkMC and with HepG2 was “inactive” each time. Moreover, the growth inhibition call in the test with S. aureus RN4220 is “inactive”.
With `C[C@H](CO)N1C[C@H](C)[C@@H](CN(C)C(=O)Nc2cccc3ccccc23)OCCCC[C@H](C)Oc2ccc(NC(=O)NC3CCCCC3)cc2C1=O`, in the test on HSkMC, the cytotoxicity call is “active”. The cytotoxicity call in the test with HepG2 is “inactive”. Besides, the growth inhibition call with S. aureus RN4220 is “inactive”.
In the case of `C[C@@H]1CN([C@H](C)CO)C(=O)CCCn2cc(nn2)CO[C@H]1CN(C)C(=O)c1ccc(N2CCN(C)CC2)cc1`, the cytotoxicity call with HSkMC and in the test on HepG2 was “inactive” each time. Moreover, in the test on S. aureus RN4220, the growth inhibition call is “inactive”.
Turning to `O=C(C[C@@H]1CC[C@@H]2[C@H](COC[C@@H](O)CN2S(=O)(=O)c2ccc(F)cc2)O1)NCc1ccc(Cl)c(Cl)c1`, the cytotoxicity call in the test with HSkMC and with HepG2 was “inactive” in each case. The growth inhibition call in the test with S. aureus RN4220 was “inactive”.
Regarding `COc1ccc(NC(=O)Nc2ccc3c(c2)C(=O)N([C@@H](C)CO)C[C@@H](C)[C@@H](CN(C)C(=O)Nc2c(C)noc2C)OCCCC[C@@H](C)O3)cc1`, the cytotoxicity call with HSkMC and in the test with HepG2 was “inactive” throughout. The growth inhibition call in the test on S. aureus RN4220 was “inactive”.
With `CC(C)NC(=O)N(C)C[C@H]1Oc2c(NS(=O)(=O)c3cccs3)cccc2C(=O)N([C@H](C)CO)C[C@@H]1C`, the cytotoxicity call in the test with HSkMC and in the test on HepG2 was “inactive” throughout. Also, in the test on S. aureus RN4220, the growth inhibition call was “inactive”.
Take `Nc1ccc(C(=O)NCC(=O)O)cc1`: the cytotoxicity call in the test with HSkMC and in the test on HepG2 was “inactive” each time. For the same compound, the growth inhibition call in the test with S. aureus RN4220 is “inactive”.
`Cc1cnc(Nc2ccc(F)cc2Cl)nc1-c1c[nH]c(C(=O)N[C@H](CO)c2cccc(Cl)c2)c1`: the cytotoxicity call in the test with HSkMC and in the test on HepG2 was “active” throughout. Moreover, in the test on S. aureus RN4220, the growth inhibition call is “inactive”.
As to `C[C@@H]1CN([C@H](C)CO)C(=O)c2cccc(NC(=O)C3CC3)c2O[C@H]1CN(C)S(=O)(=O)c1cn(C)cn1`, the cytotoxicity call in the test on HSkMC (human skeletal muscle cells) and in the test on HepG2 was “inactive” throughout. Further, in the test on S. aureus RN4220, the growth inhibition call is “inactive”.

(Values after the antibiotic and cytotoxicity screens of Wong et al. (2023).)
